From publication PMC11574294
No constants are given. Whether binding was seen depends on the method and setting. In cells and extracts the contact can be indirect. Some results given as binding are weak or reduced against the parent protein; the word gives no strength. For some assays here: Tags and fused reporters may be left off the sequences shown.

By UniProt entry, the sequences of proteins in these tests, tags left out. Where a name states a change or a piece, a line headed by the entry shows the natural chain unless it says otherwise. Residues count along the entry.
UniProt Q96P20: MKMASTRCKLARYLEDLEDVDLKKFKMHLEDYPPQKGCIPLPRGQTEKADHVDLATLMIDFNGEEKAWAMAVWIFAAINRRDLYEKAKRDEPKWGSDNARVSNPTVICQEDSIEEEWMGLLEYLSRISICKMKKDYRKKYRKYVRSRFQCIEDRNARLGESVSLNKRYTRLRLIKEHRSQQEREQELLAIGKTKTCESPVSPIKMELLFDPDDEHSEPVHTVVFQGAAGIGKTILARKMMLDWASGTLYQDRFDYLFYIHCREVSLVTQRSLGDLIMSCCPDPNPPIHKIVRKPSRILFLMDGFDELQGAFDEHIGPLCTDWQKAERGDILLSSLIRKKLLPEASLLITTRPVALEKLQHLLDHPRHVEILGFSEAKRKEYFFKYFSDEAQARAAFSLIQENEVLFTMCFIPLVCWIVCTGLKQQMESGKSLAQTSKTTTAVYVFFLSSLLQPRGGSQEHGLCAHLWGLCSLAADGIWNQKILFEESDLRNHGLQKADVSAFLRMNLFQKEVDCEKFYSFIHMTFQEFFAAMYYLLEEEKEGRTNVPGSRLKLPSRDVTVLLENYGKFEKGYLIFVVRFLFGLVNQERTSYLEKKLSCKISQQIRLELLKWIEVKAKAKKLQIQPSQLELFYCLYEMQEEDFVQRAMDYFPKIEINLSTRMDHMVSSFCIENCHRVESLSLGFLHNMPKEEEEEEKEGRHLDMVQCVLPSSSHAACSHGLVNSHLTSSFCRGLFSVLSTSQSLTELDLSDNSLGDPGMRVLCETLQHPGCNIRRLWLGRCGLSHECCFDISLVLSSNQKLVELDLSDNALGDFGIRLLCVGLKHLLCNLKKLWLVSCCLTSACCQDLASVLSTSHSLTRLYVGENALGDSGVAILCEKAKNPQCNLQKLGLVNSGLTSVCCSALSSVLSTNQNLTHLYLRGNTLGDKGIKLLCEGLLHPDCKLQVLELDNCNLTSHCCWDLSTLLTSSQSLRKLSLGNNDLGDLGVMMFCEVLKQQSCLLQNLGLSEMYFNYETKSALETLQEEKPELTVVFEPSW
3xFLAG-mEGFP-NLRP3-742-1036 (LRR domain of NLRP3): residues 742-1036 of Q96P20
UniProt Q9ULZ3: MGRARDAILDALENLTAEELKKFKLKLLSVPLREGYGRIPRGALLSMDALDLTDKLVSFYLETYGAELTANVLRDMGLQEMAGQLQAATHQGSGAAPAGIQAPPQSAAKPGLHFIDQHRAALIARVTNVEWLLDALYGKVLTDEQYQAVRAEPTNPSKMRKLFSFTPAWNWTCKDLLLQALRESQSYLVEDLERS
UniProt P29466: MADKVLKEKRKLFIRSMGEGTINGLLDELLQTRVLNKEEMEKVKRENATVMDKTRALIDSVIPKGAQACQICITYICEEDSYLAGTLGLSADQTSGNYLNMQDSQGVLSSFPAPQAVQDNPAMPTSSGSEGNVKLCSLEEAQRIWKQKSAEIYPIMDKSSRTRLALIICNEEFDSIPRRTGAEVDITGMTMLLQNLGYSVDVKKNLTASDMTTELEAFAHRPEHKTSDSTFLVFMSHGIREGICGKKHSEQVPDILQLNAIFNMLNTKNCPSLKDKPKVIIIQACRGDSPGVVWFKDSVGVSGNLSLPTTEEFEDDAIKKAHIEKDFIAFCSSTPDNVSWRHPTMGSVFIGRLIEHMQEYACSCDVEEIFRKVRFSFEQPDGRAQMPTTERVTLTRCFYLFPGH
UniProt Q8R4B8: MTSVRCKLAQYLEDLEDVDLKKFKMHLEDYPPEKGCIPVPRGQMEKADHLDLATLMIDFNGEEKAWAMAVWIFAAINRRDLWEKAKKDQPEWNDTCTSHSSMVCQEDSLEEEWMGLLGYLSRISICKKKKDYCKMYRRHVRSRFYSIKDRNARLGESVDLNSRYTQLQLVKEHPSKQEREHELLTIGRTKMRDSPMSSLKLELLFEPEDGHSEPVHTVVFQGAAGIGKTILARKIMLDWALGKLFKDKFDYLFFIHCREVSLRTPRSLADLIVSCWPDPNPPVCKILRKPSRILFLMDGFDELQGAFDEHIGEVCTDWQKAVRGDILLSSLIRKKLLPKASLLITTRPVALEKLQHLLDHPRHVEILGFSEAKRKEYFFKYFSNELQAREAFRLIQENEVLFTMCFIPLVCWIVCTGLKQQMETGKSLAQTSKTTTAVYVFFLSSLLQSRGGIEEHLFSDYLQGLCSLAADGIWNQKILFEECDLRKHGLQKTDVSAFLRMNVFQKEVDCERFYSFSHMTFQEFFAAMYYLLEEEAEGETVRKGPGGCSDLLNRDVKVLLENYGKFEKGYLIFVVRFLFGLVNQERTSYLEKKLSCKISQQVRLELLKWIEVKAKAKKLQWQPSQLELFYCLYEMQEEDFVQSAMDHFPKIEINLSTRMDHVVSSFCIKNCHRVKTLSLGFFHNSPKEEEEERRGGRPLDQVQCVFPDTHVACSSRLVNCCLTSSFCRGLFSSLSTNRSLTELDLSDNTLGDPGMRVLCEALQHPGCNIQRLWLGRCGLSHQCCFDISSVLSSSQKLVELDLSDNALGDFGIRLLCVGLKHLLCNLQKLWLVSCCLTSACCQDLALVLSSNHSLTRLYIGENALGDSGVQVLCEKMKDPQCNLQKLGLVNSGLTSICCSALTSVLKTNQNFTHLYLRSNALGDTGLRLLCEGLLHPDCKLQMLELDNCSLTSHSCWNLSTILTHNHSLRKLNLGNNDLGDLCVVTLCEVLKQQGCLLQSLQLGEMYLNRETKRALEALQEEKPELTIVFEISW
UniProt Q8R151: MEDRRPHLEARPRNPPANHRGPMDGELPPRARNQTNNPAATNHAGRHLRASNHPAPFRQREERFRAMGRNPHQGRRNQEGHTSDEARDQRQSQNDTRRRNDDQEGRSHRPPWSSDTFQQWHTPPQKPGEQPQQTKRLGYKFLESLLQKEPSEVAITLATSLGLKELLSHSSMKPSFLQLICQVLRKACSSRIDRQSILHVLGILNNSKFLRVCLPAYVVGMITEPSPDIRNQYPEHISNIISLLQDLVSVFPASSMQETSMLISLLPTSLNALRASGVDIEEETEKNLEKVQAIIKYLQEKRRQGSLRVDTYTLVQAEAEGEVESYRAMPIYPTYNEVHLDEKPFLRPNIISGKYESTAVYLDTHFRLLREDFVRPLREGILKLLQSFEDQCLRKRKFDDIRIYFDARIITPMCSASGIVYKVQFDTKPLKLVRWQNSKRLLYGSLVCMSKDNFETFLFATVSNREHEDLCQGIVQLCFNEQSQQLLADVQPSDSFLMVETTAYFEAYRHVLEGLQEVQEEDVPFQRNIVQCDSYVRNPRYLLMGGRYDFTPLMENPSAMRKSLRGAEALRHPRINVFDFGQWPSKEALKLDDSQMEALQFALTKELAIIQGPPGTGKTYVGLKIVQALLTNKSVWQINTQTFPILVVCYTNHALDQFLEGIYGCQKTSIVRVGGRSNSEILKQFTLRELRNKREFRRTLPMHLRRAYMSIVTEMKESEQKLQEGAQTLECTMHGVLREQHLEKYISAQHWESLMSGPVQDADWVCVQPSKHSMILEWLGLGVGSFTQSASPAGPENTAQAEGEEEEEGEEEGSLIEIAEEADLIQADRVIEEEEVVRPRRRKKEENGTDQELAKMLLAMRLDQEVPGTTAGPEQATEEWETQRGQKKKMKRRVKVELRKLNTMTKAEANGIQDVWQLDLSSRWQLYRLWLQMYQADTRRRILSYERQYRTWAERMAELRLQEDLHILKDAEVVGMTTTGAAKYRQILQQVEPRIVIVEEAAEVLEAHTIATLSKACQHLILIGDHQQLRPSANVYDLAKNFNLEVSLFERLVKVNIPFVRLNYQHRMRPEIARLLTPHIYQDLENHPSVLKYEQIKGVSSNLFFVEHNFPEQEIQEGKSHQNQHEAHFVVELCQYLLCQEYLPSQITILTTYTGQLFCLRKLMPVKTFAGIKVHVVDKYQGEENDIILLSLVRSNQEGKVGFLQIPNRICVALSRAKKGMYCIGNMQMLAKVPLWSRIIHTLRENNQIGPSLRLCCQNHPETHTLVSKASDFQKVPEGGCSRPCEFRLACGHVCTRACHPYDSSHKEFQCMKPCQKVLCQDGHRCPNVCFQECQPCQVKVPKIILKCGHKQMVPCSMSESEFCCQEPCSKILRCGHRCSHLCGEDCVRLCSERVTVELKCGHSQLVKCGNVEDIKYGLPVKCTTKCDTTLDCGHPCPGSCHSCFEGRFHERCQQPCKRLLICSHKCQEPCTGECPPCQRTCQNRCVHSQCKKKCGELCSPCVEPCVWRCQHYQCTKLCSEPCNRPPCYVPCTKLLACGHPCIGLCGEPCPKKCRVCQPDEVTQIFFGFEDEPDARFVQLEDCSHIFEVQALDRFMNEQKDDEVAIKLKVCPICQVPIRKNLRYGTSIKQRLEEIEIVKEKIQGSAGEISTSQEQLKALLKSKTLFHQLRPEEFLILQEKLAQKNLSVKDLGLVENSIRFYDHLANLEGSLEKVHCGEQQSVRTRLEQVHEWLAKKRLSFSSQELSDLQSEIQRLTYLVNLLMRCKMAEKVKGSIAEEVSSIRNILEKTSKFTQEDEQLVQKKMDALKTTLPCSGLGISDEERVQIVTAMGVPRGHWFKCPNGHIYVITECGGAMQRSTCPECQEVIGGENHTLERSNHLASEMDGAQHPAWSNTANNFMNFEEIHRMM

How the values were obtained:
[1] = target: 3xFLAG-mEGFP-NLRP3 (NLR family pyrin domain-containing protein 3), expressed in HEK293T (UniProt Q96P20); experiment: co-IP; 3xFLAG-tagged and HA-tagged proteins co-expressed in HEK293T; lysis buffer 50 mM Tris-HCl pH 7.4, 150 mM NaCl, 0.5% Triton X-100; FLAG-M2 agarose beads 4 h at 4 C; blots with anti-FLAG and anti-HA
[2] = target: 3xFLAG-mEGFP-NLRP3-742-1036 (LRR domain of NLRP3) (UniProt Q96P20); experiment: as above
[3] = target: T1, 3xFLAG-mEGFP-AIM2, expressed in HEK293T (UniProt O14862); experiment: as above
T1 sequence: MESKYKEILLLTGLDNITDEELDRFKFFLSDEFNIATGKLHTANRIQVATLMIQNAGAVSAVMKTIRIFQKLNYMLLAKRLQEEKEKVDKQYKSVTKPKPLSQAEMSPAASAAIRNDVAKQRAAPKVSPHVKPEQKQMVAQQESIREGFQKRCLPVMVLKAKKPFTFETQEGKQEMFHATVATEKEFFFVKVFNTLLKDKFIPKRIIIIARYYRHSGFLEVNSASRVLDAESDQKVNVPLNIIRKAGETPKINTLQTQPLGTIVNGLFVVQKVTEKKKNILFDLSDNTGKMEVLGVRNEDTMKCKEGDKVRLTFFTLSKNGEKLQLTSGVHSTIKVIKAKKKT

[4] = target: 3xFLAG-mEGFP-ASC, expressed in HEK293T (UniProt Q9ULZ3); experiment: as above
[5] = target: 3xFLAG-mEGFP-caspase-1, expressed in HEK293T (UniProt P29466); experiment: as above
[6] = target: T2, 3xFLAG-ZNFX1-580-1260 (P-loop domain of ZNFX1) (UniProt Q9P2E3); experiment: as above
T2 sequence: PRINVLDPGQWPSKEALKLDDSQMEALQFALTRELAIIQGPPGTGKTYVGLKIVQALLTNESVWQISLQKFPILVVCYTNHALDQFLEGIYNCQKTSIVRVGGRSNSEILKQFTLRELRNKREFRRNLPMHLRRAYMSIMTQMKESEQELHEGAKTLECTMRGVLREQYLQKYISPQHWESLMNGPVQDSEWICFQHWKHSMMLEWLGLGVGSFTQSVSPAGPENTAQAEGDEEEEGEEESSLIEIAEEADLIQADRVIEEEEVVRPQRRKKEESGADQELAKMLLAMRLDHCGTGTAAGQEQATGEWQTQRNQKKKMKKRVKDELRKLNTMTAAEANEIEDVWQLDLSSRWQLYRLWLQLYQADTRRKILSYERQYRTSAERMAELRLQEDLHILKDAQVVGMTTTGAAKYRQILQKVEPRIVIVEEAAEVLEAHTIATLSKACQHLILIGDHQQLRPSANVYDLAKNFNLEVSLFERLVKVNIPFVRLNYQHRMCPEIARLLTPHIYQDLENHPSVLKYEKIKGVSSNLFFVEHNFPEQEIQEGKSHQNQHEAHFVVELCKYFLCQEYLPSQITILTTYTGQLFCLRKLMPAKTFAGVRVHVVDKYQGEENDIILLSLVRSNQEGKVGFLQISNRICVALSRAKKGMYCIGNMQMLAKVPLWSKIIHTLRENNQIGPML

[7] = target: 3xFLAG-mEGFP-ZNFX1 E1007Q (Walker B motif mutant) (UniProt Q9P2E3); experiment: co-IP; co-immunoprecipitation of NLRP3 with WT or helicase mutants of ZNFX1; cells and beads not named in the legend
[8] = target: 3xFLAG-mEGFP-ZNFX1 K625A (Walker A motif mutant) (UniProt Q9P2E3); experiment: as above
[9] = target: 3xFLAG-mEGFP-ZNFX1 L1051P, stably expressed in ZNFX1 KO THP-1 cells (UniProt Q9P2E3); experiment: co-IP; ZNFX1 KO THP-1-derived macrophages rescued with WT or pathogenic alleles of ZNFX1; FLAG-M2 beads; endogenous NLRP3 blotted
[10] = target: 3xFLAG-mEGFP-ZNFX1 R334Q, stably expressed in ZNFX1 KO THP-1 cells (UniProt Q9P2E3); experiment: as above
[11] = target: 3xFLAG-mEGFP-ZNFX1 I1154T, stably expressed in ZNFX1 KO THP-1 cells (UniProt Q9P2E3); experiment: as above
[12] = target: 3xFLAG-mEGFP-ZNFX1 wild type, stably expressed in ZNFX1 KO THP-1 cells (UniProt Q9P2E3); experiment: as above
[13] = target: NLRP3, endogenous in THP-1-derived macrophages (human (endogenous in THP-1)) (UniProt Q96P20); experiment: co-IP; endogenous proteins; lysates of THP-1-derived macrophages, iBMDM (WT or Znfx1 KO) or primary BMDM, resting, LPS-primed or nigericin-treated; anti-NLRP3 (AdipoGen) or IgG control 4 h at 4 C, Protein A/G beads overnight
[14] = target: NLRP3, endogenous in mouse iBMDM and primary BMDM (mouse (endogenous in iBMDM and BMDM)) (UniProt Q8R4B8); experiment: as above

With “HA-mCherry-ZNFX1, expressed in HEK293T (from UniProt Q9P2E3 1-1918)” the binding [1] was “binds”, the binding [2] was “binds” and the binding [3] was “no binding”. The binding [4] was “no binding” and the binding [5] was “no binding”.
With “HA-mCherry-NLRP3, expressed in HEK293T (from UniProt Q96P20 1-1036)” the binding [6] was “binds”.
In the case of “NLRP3, endogenous in THP-1-derived macrophages (from UniProt Q96P20 1-1036)”, the binding [7] is reported as “no binding”, the binding [8] is reported as “no binding” and the binding [9] is reported as “no binding”. For the same substance, the binding [10] was “no binding”, the binding [11] was “no binding” and the binding [12] was “binds”.
“ZNFX1, endogenous in THP-1-derived macrophages (from UniProt Q9P2E3 1-1918)” was tested, and the binding [13] was “binds”.
“ZNFX1, endogenous in mouse iBMDM and primary BMDM (from UniProt Q8R151 1-1909)” was tested, and the binding [14] was “binds”.
